The list shows a part of the results. At the low end of the ranking, values are background and their order means little.
target: T1, GST-Rok-C97-191 (UniProt O34857); assay: protein binding microarray; settings: Rok is a gene silencer of Bacillus subtilis; high values mean tight binding; most listed sequences are background and not binding sites; double strand, one strand shown;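 further: rank score from −0.5 (least bound) to 0.5 (best bound)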
T1 sequence: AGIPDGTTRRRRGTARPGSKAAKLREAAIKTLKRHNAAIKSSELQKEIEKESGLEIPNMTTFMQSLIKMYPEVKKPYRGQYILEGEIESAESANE

| Sequence | binding signal [E-score] |
| --- | --- |
| GCGCTTGA | -0.0679 |
| GGGAAAAC | 0.0871 |
| CCCGGACC | -0.312 |
| CAACCCTA | -0.114 |
| ACTACACT | 0.23 |
| AATGGGCT | -0.0767 |
| CAATCACA | 0.191 |
| GCTATGAC | 0.185 |
| AACTCGCG | -0.0933 |
| AGAGCAAG | -0.131 |
| CCTAGGGA | -0.0937 |
| GAGAGTCC | -0.107 |
| CACTGGCG | -0.13 |
| CCCCTGAC | -0.315 |
| ACCATGGG | -0.19 |
| CCGCTCGA | -0.159 |
| ATTCGGCC | -0.132 |
| ACCCTGGC | -0.108 |
| TGTGGCAA | -0.0517 |
| GACACAGA | -0.213 |
| CGTTTGTA | 0.113 |
| TGGGTAAA | 0.0472 |
| AAGTGCTA | 0.153 |
| CAAGAAAG | -0.0635 |
| ACATACTC | 0.0713 |

| Sequence | binding signal [E-score] |
| --- | --- |
| AGGACACA | -0.0986 |
| AGGCCGTC | -0.0752 |
| GCTTACCA | -0.125 |
| AGCCAGAT | -0.0784 |
| AGAGCAAC | -0.122 |
| GTGAACGA | -0.0692 |
| GCCGTTCC | -0.237 |
| AGGTGACT | -0.202 |
| CAGTTGTC | 0.0187 |
| ATTGCCCC | -0.211 |
| AATCATCT | -0.0652 |
| CTCTACAA | 0.00826 |
| ATGCAGGG | -0.115 |
| ACCTTTCA | -0.109 |
| ACGAGACC | -0.227 |
| CTGTTGAA | -0.0237 |
| AATGGACG | -0.176 |
| CTAGGTGA | 0.0649 |
| GGATCGCC | -0.128 |
| AGAGAGTG | -0.0254 |
| CCCAACTA | 0.257 |
| CACAGGGG | -0.225 |
| ATTGACGC | 0.0898 |
| CTCTGGGC | -0.112 |
| ATAATTTG | 0.344 |

| Sequence | binding signal [E-score] |
| --- | --- |
| CACCCTGA | -0.155 |
| ACCCTAAA | 0.00947 |
| GGTGAGAA | -0.115 |
| CTCCTCCA | -0.189 |
| TACTAATA | 0.298 |
| ACTGTGTC | -0.0876 |
| AAGCGGAA | -0.00148 |
| CCCGTAAG | -0.221 |
| AGCTCAGG | -0.065 |
| ATATCCTA | 0.289 |
| AATAGGGA | 0.061 |
| AGACGTCG | 0.0181 |
| GTTATCGA | -0.0227 |
| AGATAGAC | 0.0495 |
| ACCCATGA | 0.0785 |
| ACGCGCGC | -0.109 |
| CATTATGG | 0.0609 |
| AATTTACT | 0.416 |
| CGGTCTCA | -0.142 |
| ACTGGCGA | -0.0147 |
| ACCACTAG | 0.117 |
| CAATTCCG | -0.0553 |
| CCAGTGTC | -0.173 |
| CAGCTCCA | -0.0439 |
| GACTCTTA | -0.18 |

| Sequence | binding signal [E-score] |
| --- | --- |
| GGTACTTA | 0.198 |
| CGCCTTGC | -0.31 |
| CATAACGC | 0.0154 |
| CGATATCC | 0.134 |
| ACGATTTC | -0.0407 |
| CCCAAACG | 0.0806 |
| CACCGTTC | 0.0362 |
| GTCGTGGA | 0.0312 |
| ATGTGTCA | 0.116 |
| ATCGGTTC | -0.0124 |
| GCCGGGCA | -0.292 |
| ATTATCTC | 0.0108 |
| TGGCCCCA | -0.202 |
| CTCCAACA | 0.00134 |
| ACACGACG | 0.033 |
| ATTGGTCG | -0.0188 |
| AGGTGAGA | -0.271 |
| GCGAACGA | -0.167 |
| CCGCTCAG | -0.196 |
| CCTAAGAA | -0.0671 |
| ACACGTAC | -0.0778 |
| ACCAGTCC | -0.162 |
| GGCGTAAC | -0.23 |
| ACCATCCC | 0.101 |
| CAGCGGTA | 0.00278 |

| Sequence | binding signal [E-score] |
| --- | --- |
| AAGTCGGT | 0.112 |
| CTATAAAG | 0.0382 |
| ACCCGTGA | -0.231 |
| CGGAGTGC | -0.256 |
| CTCTGGGA | 0.039 |
| CGGGAAGC | -0.059 |
| CCGAAACA | -0.0139 |
| CCAAGCAC | -0.302 |
| CGCATACC | -0.053 |
| CTCTGCAA | -0.172 |
| AGTGTAAA | 0.177 |
| ACCTCGAT | 0.113 |
| AGCCCATA | -0.116 |
| AGCAGATC | 0.00263 |
| GGATAAAC | 0.15 |
| AGGAAGAA | 0.0109 |
| CGAAATCC | 0.0516 |
| GTCGCGAA | -0.197 |
| AGTATGAC | 0.127 |
| GTCGTAAA | 0.0852 |
| CCTCCGCA | -0.3 |
| AAAGCGGC | -0.225 |
| ATTAACGC | -0.000919 |
| ACCACTCC | 0.0373 |
| CGGAATCC | -0.161 |

| Sequence | binding signal [E-score] |
| --- | --- |
| CACTGCGG | -0.204 |
| CGTGTGTC | -0.0655 |
| CAGTACAA | 0.251 |
| ATAGAAAG | 0.292 |
| CATTCTAG | 0.202 |
| AGTAATTA | 0.376 |
| TAGTGTCA | 0.158 |
| ATTAACGG | 0.137 |
| AAAGGAGA | -0.107 |
| GACCATGC | -0.188 |
| AAGCGTAA | 0.00495 |
| AATCAAAC | 0.145 |
| AAGTTCCA | -0.0431 |
| AGTACCGA | 0.222 |
| TGCTGACA | -0.08 |
| AAATAATA | 0.317 |
| CTAAGATC | -0.0211 |
| CCCGCCGC | -0.409 |
| CCGTGCCG | -0.0955 |
| GCTTGCAC | -0.119 |
| AACAGAAA | 0.00945 |
| ACATGCCG | -0.156 |
| GAATCCTC | -0.24 |
| CCTTTAGC | -0.125 |
| AAATGCGC | 0.0187 |

| Sequence | binding signal [E-score] |
| --- | --- |
| GCCAAGCA | -0.314 |
| AATCCCGA | -0.0261 |
| TAGTTCCA | 0.26 |
| ATTTCCTA | 0.204 |
| AAAGCATA | 0.0711 |
| AAAGAGGT | 0.0452 |
| ATCATCAC | 0.0601 |
| AGCACGAG | -0.17 |
| GCGTTTAC | -0.159 |
| ACTACCCG | 0.0272 |
| CTGGAACC | -0.0259 |
| AAGCATAG | 0.0443 |
| GGCCTGAA | -0.228 |
| CCGGCGCG | -0.359 |
| AACTATAA | 0.309 |
| CGGCAGAA | -0.0967 |
| GTGCGTCA | -0.0321 |
| ACGCATAC | 0.0846 |
| ATGGTTAC | -0.208 |
| AAAGATCC | 0.00535 |
| AAGTCACG | -0.0367 |
| CGTTGGGC | -0.288 |
